Test results: PMC4336329 (PLoS ONE, 2015)
The whole screen tested about 310,000 compounds, of which about 2,200 (0.71%) showed an effect of 50% or more. Effects have a minus sign here. Some of the results follow.

target: human ether-à-go-go-related gene (hERG) potassium channel (human, UniProt Q12809); test: primary screen, population patch clamp on CHO cells stably expressing hERG
Sequence (Q12809 whole entry, looked up): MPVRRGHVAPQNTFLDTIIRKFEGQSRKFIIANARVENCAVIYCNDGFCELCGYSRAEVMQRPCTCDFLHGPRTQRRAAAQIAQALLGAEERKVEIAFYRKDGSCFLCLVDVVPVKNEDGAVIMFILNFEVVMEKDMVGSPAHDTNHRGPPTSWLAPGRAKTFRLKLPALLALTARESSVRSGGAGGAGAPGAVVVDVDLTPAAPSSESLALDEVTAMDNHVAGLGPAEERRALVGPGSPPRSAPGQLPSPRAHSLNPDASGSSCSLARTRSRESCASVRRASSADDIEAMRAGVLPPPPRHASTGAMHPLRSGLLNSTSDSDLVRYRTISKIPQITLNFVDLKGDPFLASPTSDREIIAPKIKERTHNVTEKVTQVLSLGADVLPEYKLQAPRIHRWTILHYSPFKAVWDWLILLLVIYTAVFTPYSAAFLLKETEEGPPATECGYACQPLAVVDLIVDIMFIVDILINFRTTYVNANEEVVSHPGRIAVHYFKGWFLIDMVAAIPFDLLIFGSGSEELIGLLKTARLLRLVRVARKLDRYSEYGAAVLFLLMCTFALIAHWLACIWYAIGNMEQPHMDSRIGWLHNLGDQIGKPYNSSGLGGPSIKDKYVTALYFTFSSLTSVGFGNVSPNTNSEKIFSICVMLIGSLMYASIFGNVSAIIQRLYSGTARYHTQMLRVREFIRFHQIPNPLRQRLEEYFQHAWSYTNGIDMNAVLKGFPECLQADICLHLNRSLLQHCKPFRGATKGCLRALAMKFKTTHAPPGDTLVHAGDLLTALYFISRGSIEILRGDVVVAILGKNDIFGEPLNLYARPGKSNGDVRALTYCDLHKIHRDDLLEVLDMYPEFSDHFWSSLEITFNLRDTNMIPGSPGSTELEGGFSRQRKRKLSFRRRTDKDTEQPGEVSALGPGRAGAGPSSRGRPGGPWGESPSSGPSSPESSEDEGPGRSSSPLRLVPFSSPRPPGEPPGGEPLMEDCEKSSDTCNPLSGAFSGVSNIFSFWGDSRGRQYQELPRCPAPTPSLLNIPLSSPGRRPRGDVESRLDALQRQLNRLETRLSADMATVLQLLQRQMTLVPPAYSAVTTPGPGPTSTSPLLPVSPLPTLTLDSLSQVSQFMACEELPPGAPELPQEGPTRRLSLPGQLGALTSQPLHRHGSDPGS

SMILES	hERG current change (%, negative = inhibition) at 1uM
Cn1c(N)c(C(=O)COC(=O)[C@H](Cc2ccccc2)N2C(=O)c3ccccc3C2=O)c(=O)n(C)c1=O	13.8%
CCCOc1ccc(CN(CCC#N)C(=S)NC(=O)c2ccccc2)cc1	5.23%
Cc1ccccc1C(=O)Nc1ccnn1C1CCN(Cc2ccccn2)CC1	-14.6%
C=CCSc1n[nH]c(-c2ccc(OCCC)cc2)n1	7.2%
CC1C(=O)CCC1(C(=O)O)c1ccccc1 (centres unmarked)	13.7%
O=C(Nc1ccc2c(c1)C(=O)NC2=O)c1ccc(S(=O)(=O)N2CCCC2)cc1	8.71%
Cc1cccc(C)c1NC(=O)CCCSc1nnnn1C	11.8%
C=CCN1CCN(C(=O)c2ccc(-c3ccccc3)cc2)CC1	13.3%
COc1cc2c(cc1OC)-c1cc(NC3CCCCCC3)nc(=O)n1CC2	3.43%
S=C(NCCN1CCOCC1)Nc1ccc(Cl)cc1	6.9%
O=C(NCc1ccncc1)c1cccc(NS(=O)(=O)c2ccc(F)c(F)c2)c1	-7.88%
O=C(COC(=O)C1CCN(c2ccc(C(F)(F)F)cn2)CC1)c1ccccc1Cl	14.3%
CCOc1ccc(CNC(=O)CCC(=O)N2CCSc3ccccc32)cc1	3.97%
CCN1C(C(=O)c2ccccc2)=C(Nc2ccccc2C)c2ccccc2S1(=O)=O	5.96%
CC1(C)Cc2nc3sc4c(=O)n(CC(N)=O)cnc4c3cc2CO1	8.19%
Cc1nc(-c2ccc(S(=O)(=O)N3CCN(Cc4ccccc4)CC3)s2)cs1	6.56%
Cc1cc(Cl)cc2sc(NC(=O)C3CC3)nc12	4.55%
CCOC(=O)c1ccc(N2C(=O)C(O)=C(C(C)=O)C2c2ccc([N+](=O)[O-])cc2)cc1 (centres unmarked)	7.54%
O=C(Nc1ccccc1)c1ccccc1CC[N+](=O)[O-]	9.19%
COc1ccc(-c2csc(NC(=O)C3CCCO3)n2)cc1 (centres unmarked)	11.5%

SMILES	hERG current change (%, negative = inhibition) at 1uM
CCOC(=O)Nc1ccc2c(c1)N(C(=O)CCN(CC)CC)c1ccccc1S2=O.Cl (centres unmarked)	5.41%
CCCOc1ccc2c3c(c(=O)oc2c1OCCC)CCCC3	8.28%
O=C(COC(=O)c1ccccn1)Nc1ncc(C(F)(F)F)cc1Cl	-9.94%
CC1(C)Cc2nc3sc4c(SCC(=O)NC(c5ccccc5)c5ccccc5)ncnc4c3cc2CO1	11.9%
CCCCCCCCN1C(=O)C(O)=C(C(C)=O)C1c1ccccn1 (centres unmarked)	9.81%
Cc1ccc(Cl)cc1N(CC(=O)NCc1ccccc1)S(C)(=O)=O	18%
Cc1cc(=O)oc2cc(OCC(=O)NC3CC(C)(C)NC(C)(C)C3)ccc12	-7.79%
CCCCn1c(N)c(N(CCOC)C(=O)c2c(C)noc2C)c(=O)[nH]c1=O	13.1%
COc1cccc(NC(=O)COc2ccc(C)cc2)c1	5.59%
Cc1ccc(N)c(C(=O)c2ccc(Br)cc2)c1	12.9%
CCOC(=O)N1CCC(NC2CCCCCCC2)CC1	-3.76%
CC1(C)CC(O)CC(C)(C)N1CC(O)COCc1ccccc1 (centres unmarked)	13.1%
COc1ccccc1NS(=O)(=O)c1ccc2c(c1)CCN2C(=O)CCC(=O)O	14.4%
O=C1C([N+](=O)[O-])=C(O)c2cccc3cccc1c23	11.4%
ClCc1cc2ccccc2nc1Cl	6.94%
COc1ccc(CCn2c(=O)[nH]c3cc(C(=O)NCCCN4CCOCC4)ccc3c2=O)cc1OC	15.7%
COc1cc(C=O)ccc1Oc1nnnn1-c1ccccc1	14.5%
CC1(C)OC(=O)C(=CNc2cccc(O)c2)C(=O)O1	14.2%
Cc1cc(C)c(NC(=O)CSc2nc3ccncc3[nH]2)c(C)c1	15.8%
CCc1cc(=O)oc2cc(C)cc(OC(C)C(=O)NCCN3CCOCC3)c12 (centres unmarked)	8.13%

SMILES	hERG current change (%, negative = inhibition) at 1uM
Cn1cc(Cl)c(-c2nc3ccccc3[nH]2)n1	-3.35%
CCCNC(=O)c1ccc(S(=O)(=O)c2ccc(OC)cc2)c([N+](=O)[O-])c1	7.6%
C=CCNS(=O)(=O)c1ccc(N2C(=O)c3ccccc3C2=O)cc1	5.61%
COc1ccc(-c2noc(N3CCC(C(=O)Nc4ccccc4F)CC3)n2)cc1	2.56%
O=C(c1ccc(F)cc1)N1CCN(C(=O)c2cccnc2)CC1	7.53%
O=C(CSc1ccccc1)NCCc1ccc(F)cc1	10.7%
CC(C)NC(=O)c1onc(CSc2ccccc2F)c1C(=O)O	15%
COc1ccc(/C=C/C2=CC(C)(C)NC(=S)N2)cc1	13.4%
N#Cc1ccc(OCC(=O)NCCN2CCOCC2)cc1	8.41%
O=C(Nn1cnnc1)c1ccccc1-c1ccccc1	3.17%
CCOC(=O)C[C@H]1c2cc(F)ccc2S(=O)(=O)N1C(C)(C)C	9.82%
COc1cc(NC(=O)c2cc3nc(-c4ccccc4)cc(-c4ccccc4)n3n2)cc(OC)c1OC	11.6%
COc1ccccc1CNC(=O)CSc1ccccc1	16.8%
CCn1ncc(Cl)c1C(=O)Nc1cc(Cl)ccc1Cl	5.15%
CC(C)(C)C(=O)NC(=S)Nc1ccccc1C(=O)Nc1ccccc1	5.47%
Nc1ccc(Oc2ccccc2-c2ccccc2)cc1	7.54%
COc1ccccc1NS(=O)(=O)c1cc(NC(=O)c2cccs2)ccc1N1CCCC1	9.95%
COC(=O)C1=NN(c2ccc(Cl)cc2)C2C(=O)N(c3ccccc3OC)C(=O)C12 (centres unmarked)	8.05%
O=C(NCc1ccccc1)C(c1ccco1)N(C(=O)c1csnn1)c1ccccc1 (centres unmarked)	9.93%
